Measured values as given in patent US20060052454A1 (priority 2004, published 2006).

Legend:
[1] = test system: physical malformations or deformities (scoliosis)
Excerpt: Birth Defects: This study group consisted of twelve participants who had physical malformations or deformities in the mechanical structure of their bodies. […] At the age of two years, they were provided with a Milwaukee Brace.

[2] = test system: asthma
[3] = test system: weak or fragile finger nails; conditions: 137 participants
[4] = test system: vision problems; conditions: 46 participants, 10 grams daily
[5] = test system: osteoporosis; conditions: 65 females, baseline loss 5-20%; several months, 10 grams daily
[6] = test system: infectious diseases (sore throat, flu, or cold); conditions: in vivo
[7] = test system: multiple sclerosis; conditions: 18 participants
[8] = test system: anemia; conditions: 96 participants, ferropenic anemia most frequent
[9] = test system: teeth and gum problems
Excerpt: Teeth and gum: This study included 146 cases of teeth and gum problems (e.g., tooth pain, gums that bleed easily, a high tendency to have tooth decay).
Her dentist has established a 2-4 year program of orthodontics, using a succession of bracing devices.

[10] = test system: arthrosis and arthritis; assay: Glycine treatment of study participants with arthrosis and arthritis
[11] = test system: injuries due to physical traumas; assay: Glycine treatment of participants with injuries due to physical traumas; type: in vivo, human
Excerpt: Physical Injuries: The persons participating in the study who suffered from recurrent pains as a result of injuries due to physical traumas included amateur and professional sportsmen and others who had injured themselves several years before and had undergone one or more surgeries to correct their continuing problems.

[12] = test system: high blood cholesterol; conditions: 24 cases treated exclusively with glycine
[13] = test system: infant strength; conditions: mothers on glycine during all pregnancy, preliminary
[14] = test system: arthrosis or arthritis; conditions: four dogs, 1 g daily per 5-7 Kg body mass
[15] = test system: skin problems; conditions: oral, after a few weeks
[16] = test system: cancer
[17] = test system: hearing problems; conditions: twenty participants
[18] = test system: impaired and fatigued voices
[19] = test system: muscular problems, including muscular dystrophies; conditions: 5-10 grams/day

## NCC(=O)O [glycine, Glycine]
[1]; child with scoliosis, three months, 10 grams daily, baseline 55
  Spinal deviation: 39 degrees
[1]; child, three months, 10 grams daily
  Height grown: 5 centimeters
[1]; twelve participants
  Physical malformations or deformities: all of them reported improvements
[2]; 5-10 grams/day
  Effectiveness in asthma: effective at reducing or eliminating the participants' asthma problems
[2]; after 30-60 days
  Frequency of asthma crises, 10-15 year-olds: much less frequent
[2]; after five months
  Occurrence of asthma crises, 10-15 year-olds: the occurrence of asthma crises ceased
[3]
  Condition of weak or fragile finger nails: greatly improved
[4]
  Vision: some vision improvements
[5]
  Bone mass losses by bone densitometries: reduced the degree of their bone mass losses
[6]
  Infectious diseases compared to prior years: less infectious diseases
[7]
  Multiple sclerosis conditions: reported improvements in their conditions
[8]
  Effectiveness in anemia: effective in all these cases
[9]; 146 cases
  Time to improvement of teeth and gum problems, some cases: improvements were obtained after only two weeks of treatment
[9]; about 30 participants
  Orthodontic problems: observed to be improved
[9]; after three months of glycine with bracing
  Teeth and jaw structure, child with bracing program: their teeth and the jaw structure were normal
[9]; men in their 50s, lifelong bleeding gums
  Time to total elimination of symptoms (bleeding gums): 6-12 months
[10]; 4-5 g/day after several months of treatment
  Effect of reduction of dosage to half: provoked a moderate return to the pain in their fingers
[10]; 10 g/day after dose reduction
  Effect of return to the initial dose: again produced the same improvements as before
[10]; 10 g/day oral
  Effectiveness of glycine treatment in arthrosis and arthritis: effective in all cases
  Pain relief, most people under 40 years of age: some pain relief in the first week of treatment
  Time to first results, some people over 60 years old: more than four month to see the first results
[10]; 10 g/day oral, according to age and afflicted joint
  Time period in which treatment proved effective: between two weeks and four months
[10]; 50 arthrosis patients aged 50-65 years
  Effect of interruption of treatment: provoked the reappearance of the pain in their finger joints after some weeks
[10]; more than one year of treatment
  Heberden's or Bouchard's nodes, finger shape: recovered the normal shape of their fingers
[10]; older participants
  Duration of glycine treatment to significant decreases in adverse effects of arthrosis on joints: 2-3 weeks
[10]; prolonged oral treatment
  Negative results (gastric or intestinal problems, symptoms similar to seasickness): No negative results
[10]; with time of treatment
  Recovery reported by many participants without analgesic or anti-inflammatory drug: full recovery and total lost of pain in all their damaged joints
[10]; within a few weeks of treatment resumption
  Effect of return to glycine treatment after interruption: their pain was again eliminated
[11]; 15-20 grams daily, some instances
  Treatment results at higher daily dosages: even better treatment results
[11]; after one to two weeks
  Joint healing in young people (ages 17-27) with sports injuries: their joints were sufficiently healed to allow many of them to resume playing their sports
[11]; daily consumption of 10 grams
  Pain levels or frequency of occurrence after injuries: rapid reductions in their pain levels or its frequency of occurrence
  Time to reported improvements: after only a single week of treatments
[12]
  Blood cholesterol levels after treatment: 150-180 mg/100 mL
[13]; some 15-20 g daily
  Condition of babies at birth: born perfectly and noted as being especially strong
[13]
  Babies' head raising and turning: able to raise and to turn heads with days of their birth
[14]
  Ambulatory problems: ambulatory problems disappeared totally over the next two months
  Improvement in movement and vitality: apparent two weeks after starting the treatment
[15]
  Skin pigmentation conditions, including lentigo: improvement in skin pigmentation conditions
  Skin smoothness and shine: improvements in their skin's smoothness and shine
  Skin wrinkles and sagging: reductions in skin wrinkles and sagging
[16]; glycine added to chemotherapy
  Tolerance of chemotherapy sessions: tolerated the chemotherapy
[16]; person, colon adenocarcinoma, 25 days glycine with continued chemotherapy, baseline 3319
  Carcinoembryonic antigen (CEA): 154 ng/mL
[16]; person, within two months
  Tumor status, metastatic mammary carcinoma with bone metastasis: absolute tumoral remission
[16]; same case, 25 days, baseline 821
  LDH: returned to its normal value
[17]
  Hearing problems: improvements in most of them
[18]; in vivo
  Impaired and fatigued voices: significant improvements
[18]; less for younger people
  Mean duration to achieve voice improvements: 2-4 months
[19]
  Muscular problems incl. muscular dystrophies: conditions to have improved

## N[C@H]1C(O)O[C@H](CO)[C@@H](O)[C@@H]1O (stereo partly shown) [glucosamine, reference compound]
[11]; participants' earlier use, before glycine
  Improvement with glucosamine treatments: without any appreciable improvements
